Test results as given in the supplement of paper PMC4967469.
By IC50 is meant the dose at which the fit gives 50% viability; a limit (>, <) means that the fit lies beyond the doses tested. The AUC spans the tested range (256-fold, ending at the top dose) of the same fit; the more sensitive the line, the further below 1. Where the top dose is marked as inferred, it was derived from the fitted curves, not read from the paper.

Columns and labels:
Assay in all cases: Viability of human cancer cell lines after 72 h of drug (GDSC screen)
CAY10603 = compound: CC(C)(C)OC(=O)Nc1ccc(-c2cc(C(=O)NCCCCCCC(=O)NO)no2)cc1 [CAY10603]; conditions: top dose 20 µM; top dose inferred
Method: (§1)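 Human cancer cell lines in 384-well plates, medium with 10% serum, drug for 72 h over a 256-fold dose range (nine 2-fold or five 4-fold steps up to the top dose). Adherent lines were fixed and stained with the nucleic acid dye Syto60, suspension lines read with resazurin; signal relative to control wells, capped at 0 and 100%. One two-parameter sigmoid per drug and line, fitted in a mixed model over all curves with the slope shared within a line.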

CH5424802 = compound: CCc1cc2c(cc1N1CCC(N3CCOCC3)CC1)C(C)(C)c1[nH]c3cc(C#N)ccc3c1C2=O [CH5424802]; conditions: top dose 5.12 µM; top dose inferred
Method: as §1

ACHP (KIN001-260) = compound: N#Cc1c(C2CCNCC2)cc(-c2c(O)cccc2OCC2CC2)nc1N [ACHP (KIN001-260)]; conditions: top dose 20 µM; top dose inferred
Method: as §1

Cell Line	AUC (CAY10603)	IC50 (CAY10603) [µM]	AUC (CH5424802)	IC50 (CH5424802) [µM]	AUC (ACHP (KIN001-260))	IC50 (ACHP (KIN001-260)) [µM]
KP-N-YS (neuroblastoma, adherent)	0.202	0.141	0.938	> 5.12	0.9	> 20
KS-1 (glioma, adherent)	0.595	2.42	0.962	> 5.12	0.931	> 20
KU812 (chronic myeloid leukaemia, suspension)	0.025	< 0.0781	0.988	> 5.12	0.148	0.117
KY821 (leukaemia, suspension)	0.54	1.59	0.991	> 5.12	0.987	> 20
KYM-1 (rhabdomyosarcoma, adherent)	0.518	1.38	0.991	> 5.12	0.991	> 20
KYSE-70 (oesophagus, adherent)	0.688	4.43	0.983	> 5.12	0.977	> 20
KYSE-180 (oesophagus, adherent)	0.579	2.03	0.986	> 5.12	0.945	> 20
KYSE-270 (oesophagus, adherent)	0.675	3.53	0.99	> 5.12	0.957	> 20
KYSE-510 (oesophagus, adherent)	0.735	5.08	0.992	> 5.12	0.992	> 20
KYSE-520 (oesophagus, adherent)	0.815	16.2	0.862	> 5.12	0.972	> 20
L-363 (myeloma, suspension)	0.439	0.873	0.983	> 5.12	0.929	> 20
L-540 (Hodgkin lymphoma, suspension)	0.985	> 20	0.989	> 5.12	0.961	> 20
L-1236 (Hodgkin lymphoma, suspension)	0.381	0.624	0.992	> 5.12	0.744	5.44
LAMA-84 (chronic myeloid leukaemia, suspension)	0.37	0.545	0.978	> 5.12	0.935	> 20
LC4-1 (lymphoblastic leukaemia, suspension)	0.347	0.447	0.934	> 5.12	0.851	17.8
LC-2-ad (lung adenocarcinoma, adherent)	0.365	0.526	0.943	> 5.12	0.941	> 20
LCLC-103H (large cell lung carcinoma, adherent)	0.611	2.45	0.989	> 5.12	0.906	> 20
LN-405 (glioma, adherent)	0.623	2.98	0.973	> 5.12	0.966	> 20
LNZTA3WT4 (glioma, adherent)	0.794	9.02	0.987	> 5.12	0.968	> 20

Cell Line	AUC (CAY10603)	IC50 (CAY10603) [µM]	AUC (CH5424802)	IC50 (CH5424802) [µM]	AUC (ACHP (KIN001-260))	IC50 (ACHP (KIN001-260)) [µM]
LOUCY (T-cell lymphoblastic leukaemia, suspension)	0.184	0.182	0.875	3.49	0.919	> 20
LS-411N (large intestine, adherent)	0.324	0.359	0.824	3.98	0.952	> 20
LU-99A (large cell lung carcinoma, adherent)	0.683	4.04	0.987	> 5.12	0.979	> 20
LU-134-A (small cell lung carcinoma, suspension)	0.522	1.44	0.982	> 5.12	0.987	> 20
LU-135 (small cell lung carcinoma, suspension)	0.186	0.18	0.952	> 5.12	0.954	> 20
LU-139 (small cell lung carcinoma, suspension)	0.44	0.817	0.923	> 5.12	0.887	> 20
LU-165 (small cell lung carcinoma, suspension)	0.634	3.09	0.986	> 5.12	0.931	> 20
M14 (melanoma, adherent)	0.671	3.85	0.986	> 5.12	0.95	> 20
MC116 (B-cell lymphoma, suspension)	0.277	0.362	0.999	> 5.12	0.991	> 20
MC-IXC (neuroblastoma, adherent)	0.34	0.51	0.996	> 5.12	0.996	> 20
MCF7 (breast, adherent)	0.808	10.8	0.985	> 5.12	0.986	> 20
MDA-MB-157 (breast, adherent)	0.612	2.55	0.986	> 5.12	0.988	> 20
MDA-MB-231 (breast, adherent)	0.696	4.61	0.856	4.55	0.986	> 20
MDA-MB-361 (breast, adherent)	0.539	1.6	0.989	> 5.12	0.98	> 20
MDA-MB-436 (breast, adherent)	0.722	6.39	0.951	> 5.12	0.962	> 20
MDA-MB-453 (breast, adherent)	0.336	0.414	0.956	> 5.12	0.973	> 20
ME-1 (acute myeloid leukaemia, suspension)	0.45	0.903	0.989	> 5.12	0.975	> 20
ME-180 (cervix, adherent)	0.568	1.93	0.977	> 5.12	0.971	> 20
MEG-01 (chronic myeloid leukaemia, suspension)	0.524	1.45	0.956	> 5.12	0.886	19.9

Cell Line	AUC (CAY10603)	IC50 (CAY10603) [µM]	AUC (CH5424802)	IC50 (CH5424802) [µM]	AUC (ACHP (KIN001-260))	IC50 (ACHP (KIN001-260)) [µM]
MEL-JUSO (melanoma, adherent)	0.449	0.893	0.959	> 5.12	0.943	> 20
MFH-ino (soft tissue, adherent)	0.639	3.25	0.982	> 5.12	0.982	> 20
MG-63 (osteosarcoma, adherent)	0.982	> 20	0.984	> 5.12	0.981	> 20
MHH-NB-11 (neuroblastoma, adherent)	0.452	0.911	0.966	> 5.12	0.922	> 20
MHH-PREB-1 (B-cell leukaemia, suspension)	0.236	0.239	0.989	> 5.12	0.844	12.1
MIA-PaCa-2 (pancreas, adherent)	0.728	6	0.985	> 5.12	0.984	> 20
MKN1 (stomach, adherent)	0.646	3.24	0.984	> 5.12	0.975	> 20
MKN45 (stomach, adherent)	0.891	> 20	0.981	> 5.12	0.978	> 20
ML-1 (thyroid, adherent)	0.447	0.875	0.98	> 5.12	0.977	> 20
ML-2 (acute myeloid leukaemia, suspension)	0.511	1.34	0.963	> 5.12	0.865	14.5
MOLM-13 (acute myeloid leukaemia, suspension)	0.364	0.539	0.438	0.219	0.622	2.64
MOLP-8 (myeloma, suspension)	0.185	0.15	0.868	4.37	0.817	10.7
MOLT-4 (lymphoblastic leukaemia, suspension)	0.262	0.306	0.855	2.95	0.969	> 20
MOLT-13 (T-cell lymphoblastic leukaemia, suspension)	0.154	0.13	0.953	> 5.12	0.931	> 20
MONO-MAC-6 (acute myeloid leukaemia, suspension)	0.466	1	0.938	> 5.12	0.807	11
MPP-89 (mesothelioma, adherent)	0.315	0.321	0.98	> 5.12	0.971	> 20
MRK-nu-1 (breast, suspension)	0.661	3.37	0.99	> 5.12	0.92	> 20
MS751 (cervix, adherent)	0.813	9.76	0.988	> 5.12	0.989	> 20
